Measured values taken from PubChem BioAssay AID686979 (National Center for Advancing Translational Sciences (NCATS), 2013).
In all, about 420,000 compounds went through this assay and about 50,000 (12%) were called active. Inconclusive results, whose numbers are uncertain, are shown with a selection of clear calls. The call rests on the fitted dose curve; in most records, active means well fitted inhibition curve with a large enough effect; inconclusive means small, poorly fitted or top-dose-only effect; inactive means flat fitted curve, though single readings scatter. Potencies of inconclusive entries are left out as doubtful fits.

Experiment: qHTS for Inhibitors of human tyrosyl-DNA phosphodiesterase 1 (TDP1): qHTS in cells in presence of CPT; further: nearly all actives have a fitted effect of over 55% in size
Conditions: chicken DT40 Tdp1-/-;hTDP1 cells + 20 nM CPT, ATP luminescence, 48 h; activity change, negative = growth inhibition: at 46.2 µM (top of the series)
How it was run: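 Chicken DT40 Tdp1-/- cells stably complemented with human TDP1 were seeded at 400 cells/well in medium containing 20 nM camptothecin, exposed to pin-transferred compounds, and grown at 37 °C for at least 48 hr. Viability was read as ATP luminescence.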
On the % scale 0 is the no-effect control and ±100 the full control effect; potency means the concentration at half of the fitted maximal effect; tags describe the fitted curve by direction and shape.

| Compound | Potency | activity change, negative = growth inhibition |
| --- | --- | --- |
| COC(=O)C(CCSC)NC(=O)Cn1ncc2c(=O)oc3ccccc3c21 (stereo unspecified) | inconclusive [inhibitor, single point] | – |
| Cc1cc(C)c(S(=O)(=O)N2CCCC2CNC(=O)c2ccc3c(c2)OCO3)c(C)c1 (stereo unspecified) | inconclusive [inhibitor, single point] | – |
| O=C(CN1Cc2ccccc2C1=O)Nc1cc(F)ccc1F | – | inactive: 5.77% |
| CN(Cc1nc(Cc2ccccc2F)no1)[C@@H]1CS(=O)(=O)C[C@H]1O | – | inactive: -0.826% |
| COc1cc(C(=O)NCC(=O)Nc2ccc(F)c(F)c2)ccc1OCC(=O)N1CCOCC1 | – | inactive: 0.326% |
| C#CCN1CCc2onc(-c3ccc(Br)cc3)c2C1=O | – | inactive: 18.7% |
| CCc1ccc(CN(C)C(=O)c2cc(COc3ccc(OC)cc3Cl)on2)nc1 | inconclusive [inhibitor, single point] | – |
| Cc1ccc(S(=O)(=O)N2CCN(c3nc(Nc4ccccc4O)nc4ccccc34)CC2)cc1 | inconclusive [inhibitor, partial curve, poor fit] | – |
| COc1cc2nc(N(C)C)nc(NC3CCN(C)CC3)c2cc1OC | active: 4.47 µM | – |
| CC(Oc1ccc(Cl)cc1)C(=O)NCCN1C(=O)S/C(=C\c2cccnc2)C1=O (stereo unspecified) | active: 20.6 µM | – |
| O=C(c1c(F)cccc1F)N(Cc1ccccn1)C1CCCC1 | active: 18.4 µM | – |
| COc1ccc(N2C(=O)CC(SCC(=O)O)C2=O)cc1 (stereo unspecified) | – | inactive: -27.5% |
| CC1=NNC(=O)C1Cc1ccccc1C (stereo unspecified) | – | inactive: 15.4% |
| COc1ccc(CNc2cc(-c3cccc(C#N)c3)ncn2)c(OC)c1 | inconclusive [inhibitor, partial curve, poor fit] | – |
| Cc1cc2nn(-c3cccc4ccccc34)nc2cc1N | active: 20.6 µM | – |
| Cc1sc(NC(=O)CN(C(=O)c2ccccc2F)C2CCCC2)c(C(N)=O)c1C | inconclusive [inhibitor, single point] | – |
| CCc1cc(C=NC2CCCCC2)c(O)s1 | inconclusive [inhibitor, partial curve] | – |
| CC(C)[C@H](NC(=O)[C@@H]1Cc2ccccc2CN1C(=O)OC(C)(C)C)C(=O)NCC1CCCO1 (stereo partly specified) | – | inactive: 3.01% |
| Cc1cccc2cc3ccccc3nc12 | inconclusive [inhibitor, single point] | – |
| CO[C@@H]1CN(C)C(=O)c2cc(NC(=O)NC3CCCCC3)ccc2OC[C@@H](C)N(CC2CCOCC2)C[C@@H]1C | inconclusive [inhibitor, partial curve] | – |
| CCOc1ccc(-n2c(SCC(=O)Nc3ccccc3OC)nc3c(oc4ccccc43)c2=O)cc1 | inconclusive [inhibitor, single point] | – |
| Cc1ccc2oc(=O)c3cnn(CC(=O)N(C)c4ccc(F)cc4)c3c2c1 | – | inactive: -0.352% |
| CC(=O)c1ccc(NC(=O)C2CCN(S(=O)(=O)c3ccc4c(c3)CCCN4C(=O)C3CCC3)CC2)cc1 | active: 11.6 µM | – |
| COc1ccccc1OCC(=O)N(Cc1ccc(N(C)C)cc1)CC1CCCO1 (stereo unspecified) | active: 23.1 µM | – |

| Compound | Potency | activity change, negative = growth inhibition |
| --- | --- | --- |
| CN(C)c1nc(=NCc2cccs2)ss1 | active: 0.0259 µM | – |
| CC(C)=N/N=C1/NC(=O)C(c2ccc(Cl)cc2)S1 (stereo unspecified) | inconclusive [inhibitor, single point] | – |
| Cc1noc(NS(=O)(=O)c2ccc(N/C=C\C(=O)c3cccc4ccccc34)cc2)c1C | inconclusive [inhibitor, single point] | – |
| Cc1cc(C(=O)Cn2cncn2)c(C)n1CCc1ccc(F)cc1 | inconclusive [inhibitor, single point] | – |
| Cc1c(Cl)cccc1NC(=O)Nc1cc(C(C)(C)C)on1 | inconclusive [inhibitor, single point] | – |
| COc1ccc(NC(=O)Nc2ccccc2SC)cc1 | inconclusive [inhibitor, partial curve] | – |
| C/C(=N\NC(=O)c1cc(C)nc2ccccc12)c1ccccn1 | active: 1.46 µM | – |
| COCCN1C(=O)N[C@@H](c2cccc(C(F)(F)F)c2)[C@@H](C(=O)OC)[C@H]1C | – | inactive: 3.28% |
| CCOc1cc(C(=O)N2CCC3(CC2)NCCc2[nH]cnc23)cc(OCC)c1OCC | – | inactive: -0.986% |
| Cc1ccc(C)c(S(=O)(=O)N2CCCCC2CCNC(=O)C(=O)NCCc2ccco2)c1 (stereo unspecified) | inconclusive [inhibitor, single point] | – |
| COC(=O)c1ccc(COC(=O)C2CC(O)CN2S(=O)(=O)c2ccc([N+](=O)[O-])cc2)cc1 (stereo unspecified) | inconclusive [inhibitor, single point] | – |
| CCCCn1c(N)c(N(CCOC)C(=O)c2cccc(S(=O)(=O)N3CCCCC3)c2)c(=O)[nH]c1=O | – | inactive: -2.83% |
| Cn1c(=O)[nH]c(=O)c2c1nc(NCCCn1ccnc1)n2Cc1cccc(Br)c1 | inconclusive [inhibitor, single point] | – |
| COc1ccc(CNn2c(-c3ccccc3F)nc3ccccc3c2=O)cc1OC | inconclusive [inhibitor, single point] | – |
| N#Cc1cccc(NC(=O)c2cc(C3CCCCN3C(=O)C3CC3)on2)c1 (stereo unspecified) | active: 25.9 µM | – |
| CC(C)(C)OC(=O)N[C@H](C(=O)OC(C)(C)C)c1ccc2ccccc2c1 | active: 8.2 µM | – |
| Clc1ccc(-c2cn(-c3ccc(Cl)cc3)c3[n+]2CCCCC3)cc1 | active: 8.2 µM | – |
| COc1ccc(Cc2c(-c3ccc(F)cc3)nc3c4ccccc4ccn23)c(C)c1 | inconclusive [inhibitor, single point] | – |
| COc1ccc(-c2nc(N)ncc2-c2ccccc2)c(O)c1 | inconclusive [inhibitor, single point] | – |
| Cc1c(NC(=O)c2cc(-c3cccs3)nc3ccccc23)c(=O)n(-c2ccccc2)n1C | inconclusive [inhibitor, partial curve] | – |
| Cc1cccc(NC(=O)CSc2ccc(C(N)=O)cc2[N+](=O)[O-])c1C | inconclusive [inhibitor, single point] | – |
| COc1ccc(C(CNC(=O)c2ccc(-c3cccc(C(F)(F)F)c3)o2)N2CCOCC2)cc1 (stereo unspecified) | inconclusive [inhibitor, single point] | – |
| Cc1cccc(NC(=O)c2sc3nc(N4CCOCC4)c4c(c3c2N)CCCC4)c1 | inconclusive [inhibitor, single point] | – |
| CCc1ccccc1NC(=O)CN(Cc1ccccc1)S(=O)(=O)c1ccc2nc(C)sc2c1 | inconclusive [inhibitor, single point] | – |

| Compound | Potency | activity change, negative = growth inhibition |
| --- | --- | --- |
| CCc1cccc(NC(=O)C2CCCN2S(=O)(=O)c2ccccc2C(F)(F)F)c1 (stereo unspecified) | inconclusive [inhibitor, single point] | – |
| O=C(Cn1c(-c2cccs2)cc2cc(Cl)ccc21)NCc1ccccc1 | inconclusive [inhibitor, single point] | – |
| CC(C)N(CCNC(=O)c1ccc(CS(=O)(=O)c2c(Cl)cccc2Cl)o1)Cc1ccccc1 | active: 20.6 µM | – |
| Cc1cccc(NC(=O)CSCC(=O)Nc2ccc(S(=O)(=O)N3CCCCC3)cc2)c1 | inconclusive [inhibitor, single point] | – |
| CCn1c(O)c(N=NC(=O)Cc2csc(N3CCOCC3)n2)c2ccccc21 | – | inactive: -20.7% |
| COC(=O)C1=C(C)N(CCCC(=O)O)C(=O)NC1c1ccccc1OS(=O)(=O)c1ccccc1[N+](=O)[O-] (stereo unspecified) | – | inactive: -9.25% |
| S=c1[nH]nc(-c2ccc3ccccc3n2)n1-c1ccccc1 | – | inactive: 17% |
| CC(C)=CCN1CCNC(=O)C1CC(=O)NCc1nc(C)c(C)s1 (stereo unspecified) | – | inactive: 8.58% |
| Cc1ccccc1Cc1c(C)nc2nc(SCC(=O)NCCCN3CCCC3)nn2c1C | – | inactive: -14.1% |
| O=C(CSc1nc(-c2ccccc2)c(-c2ccccc2)[nH]1)NCc1ccco1 | inconclusive [inhibitor, single point] | – |
| Cc1ccc2nc(/N=C(\N)NC(=O)N3c4ccccc4Sc4ccccc43)nc(C)c2c1 | inconclusive [inhibitor, partial curve] | – |
| CN(CC(=O)Nc1c(Cl)cccc1Cl)C(=O)c1ccncc1 | – | inactive: 3.22% |
| CCOC(=O)c1cnn(-c2ccccc2)c1-n1cccc1 | – | inactive: -7.13% |
| Cc1ccc(-c2noc(C3CCCN(S(=O)(=O)c4ccc5ccccc5c4)C3)n2)o1 (stereo unspecified) | inconclusive [inhibitor, partial curve] | – |
| O=C(NCCN1CCN(c2ccc([N+](=O)[O-])cc2)CC1)NCc1ccccc1 | inconclusive [inhibitor, single point] | – |
| CCCNC(=O)C(Cc1cccc(Cl)c1)NC(=O)c1ccccc1 (stereo unspecified) | inconclusive [inhibitor, single point] | – |
| CC(C)(C)c1cc(CCC(=O)N2CCCC2)cc(C(C)(C)C)c1O | – | inconclusive: -32.6% [inhibitor] |
| O=C1c2c(-c3ccc(Br)cc3)noc2CCN1Cc1cn(-c2ccc(Cl)cc2)nn1 | inconclusive [inhibitor, single point] | – |
| Cc1ccc(-c2c(C(=O)N3CCN(c4cccc(C)c4C)CC3)oc(=O)c3ccccc23)cc1 | inconclusive [inhibitor, single point] | – |
| CCOC(=O)[C@]12CCCC=C1N(CCC1=CCCCC1)C(=O)[C@H](CC(=O)NCc1ccc(OC)c(OC)c1)C2 | active: 14.6 µM | – |
| Cc1cccc(C(=O)c2cccc(C)c2)c1 | – | inactive: -27.9% |
| O=C(OC(C(=O)N1CCOCC1)c1ccccc1)c1c2c(nc3ccccc13)CCCC2 (stereo unspecified) | inconclusive [inhibitor, single point] | – |
| CCOC(=O)c1c(C)[nH]c(NC(=O)NNC(=O)c2ccccc2Cl)c1C | – | inactive: -0.917% |
